{"source": "PubChem BioAssay (NCI)", "note": "“And” between values parts separate entries of the source, which are not always exact repeats. Identical values can stand only once.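 Protocol summary: plate cells (96-well), add compound at 5 concentrations, incubate 48 h, interpolate endpoints linearly. The concentration for 50% growth inhibition is given as GI50. TGI is the concentration that stops growth completely.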 Square brackets hold non-standard residues; d marks the D form. Peptide text beside a SMILES is read from it. * marks the point of attachment. Boc = CC(C)(C)OC(=O)*; Lac = C[CH](O)C(=O)O; OBn = c1ccc(CO*)cc1"}
{"tested_on": "NCI-H322M lung", "experiment": "DTP human tumour cell line panel, 48 h", "units": {"TGI": "µM"}}
{"smiles": "CN(CC(=O)O)S(=O)(=O)c1ccc2ccccc2c1", "TGI": "> 100"}
{"smiles": "COc1c2c(cc3c1C(=O)c1c(O)cccc1C3=O)CC(O)CC2", "note": "(configuration not stated)", "TGI": "> 100"}
{"smiles": "COc1ccc2c(c1)C1(C=N2)CCN(C(C)=O)CC1", "TGI": "> 100"}
{"smiles": "Cc1nc2c(nc1C)C(=O)c1ccccc1C2=O", "TGI": 4.89}
{"smiles": "CSc1ccc(/C=C2\\CN(C)C/C(=C\\c3ccc(SC)cc3)C2=O)cc1", "TGI": "> 100"}
{"smiles": "CCN(CC)CC(C(=O)Nc1c(C)cccc1C)/C(C)=N\\NC(=O)C[N+](C)(C)C", "note": "(configuration not stated)", "TGI": "> 100"}
{"smiles": "COc1cc(/C=C/c2cc(/C=C/c3ccc(O)c(OC)c3)n(C(=O)Nc3ccc(F)cc3)n2)ccc1O", "GI50": "2.34 µM", "TGI": 14.8}
{"smiles": "C=CCC1(O)CC(n2cc(C)c(=O)[nH]c2=O)OC1CO[Si](C)(C)C(C)(C)C", "note": "(configuration not stated)", "TGI": "> 100"}
{"smiles": "Clc1cccc(Cc2cn3cc(-c4ccccc4)nc3s2)c1Cl", "GI50": "> 100 µM", "TGI": "> 100"}
{"smiles": "O=[N+]([O-])C(=C(Cl)Cl)C(Cl)=C(Cl)Cl", "TGI": 10.5}
{"smiles": "CCOC(=O)c1c(SC(=O)c2ccc(C(C)(C)C)cc2)n(-c2ccccc2)c(=S)n(-c2ccccc2)c1=O", "TGI": "> 100"}
{"smiles": "NS(=O)(=O)c1ccccc1C(=O)N/N=C(\\c1nc2ccc([N+](=O)[O-])cc2[nH]c1=O)C(O)c1ccc([N+](=O)[O-])cc1", "note": "(configuration not stated)", "TGI": "> 100"}
{"smiles": "Cc1ccc(-c2nnc(-c3ccc4ccccc4c3)o2)cc1", "TGI": "> 100"}
{"smiles": "C[n+]1c2ccccc2c(NCC(=O)O)c2ccccc21", "TGI": "> 100"}
{"smiles": "COc1ccc2c(c1)CC[C@@H]1[C@@H]2CC[C@]2(C)C(=O)/C(=C/c3ccc(N(C)C)cc3)C[C@@H]12", "TGI": "> 100"}
{"smiles": "CSCCCN(CCCSC)CCCSC", "TGI": "> 100"}
{"smiles": "O=C(/C=C/c1ccccc1Cl)c1ccc(Cl)c(Cl)c1", "TGI": "> 100"}
{"smiles": "Cc1cc2nc(C(Cl)Cl)nc(-c3ccc(Cl)cc3)n2n1", "GI50": "0.603 µM", "TGI": 2.44}
{"smiles": "C1=CC2(C=CC13O[C@H](C1CCCCC1)[C@@H](C1CCCCC1)O3)O[C@H](C1CCCCC1)[C@@H](C1CCCCC1)O2", "TGI": "> 50"}
{"smiles": "C=CC[C@H]1O[Si](C(C)(C)C)(C(C)(C)C)[C@H](C)[C@H]1C", "TGI": "> 100"}
{"smiles": "COC(=O)[C@@H](C)C[C@H](Cc1ccc(F)cc1)NC(=O)c1csc([C@@H](C[C@H](C(C)C)N(C)C(=O)[C@@H](NC(=O)[C@H]2CCCCN2C)C(C)C)OC(C)=O)n1", "GI50": "0.00585 µM and 0.00904 µM", "TGI": "> 16.7"}
{"smiles": "O=C(CCl)N1c2ccccc2Oc2ccc3ccccc3c21", "GI50": "4.89 µM", "TGI": 10.9}
{"smiles": "CCCCCCCCSC1=CC(=O)c2nc3ccccc3c3ccnc1c23", "GI50": "> 100 µM", "TGI": "> 100"}
{"smiles": "COc1cccc(-c2nc3ccccc3c(=O)[nH]2)c1", "TGI": 39.1}
{"smiles": "O=C1c2cccnc2-c2nc(-c3ccccc3[N+](=O)[O-])cc3c2c1nc1ccccc13", "GI50": "15.8 µM", "TGI": 51.4}
{"smiles": "COc1cc2nc(C)nc(N[C@H](C)c3cc(N)cc(C(F)(F)F)c3)c2cc1O[C@H]1CCOC1", "GI50": "11 µM", "TGI": 23}
{"smiles": "Cc1cnc(NC(=O)C(Cc2ccccc2)NC(=O)c2ccccc2)s1", "note": "(configuration not stated)", "GI50": "23.5 µM", "TGI": 75.1}
{"smiles": "CC1(C)CCc2ccc(OCCC(=O)O)cc2O1", "TGI": "> 100"}
{"smiles": "CCOC(=O)COc1cccc2c1C(=O)CCO2", "TGI": "> 100"}
{"smiles": "NC(=O)C(=CNC(N)=S)C(N)=O", "TGI": "> 100"}
{"smiles": "COc1ccccc1CCN1CCN(CCCc2ccccc2)CC1", "TGI": "> 100"}
{"smiles": "O=C1C=Cc2c(Br)sc(Br)c21", "TGI": 77.7}
{"smiles": "CC(=O)C(CN(C(C)C)C(C)C)C(c1ccccc1)c1c(O)c2ccccc2oc1=O", "note": "(configuration not stated)", "TGI": "> 100"}
{"smiles": "CN(C)c1ccc(-c2cc(-c3ccc(Nc4nc(Nc5ccc(Cl)cc5)nc(Nc5ccc(Cl)cc5)n4)cc3)no2)cc1", "GI50": "13.9 µM", "TGI": "> 100"}
{"smiles": "C[C@@H](CS(C)(=O)=O)Nc1ncc2cc(Oc3ccc(F)cc3F)c(=O)n(C)c2n1", "GI50": "> 25 µM", "TGI": "> 25"}
{"smiles": "COc1ccc(-c2cc(=O)c3ccc(O)cc3o2)c(OC)c1OC", "TGI": "> 100"}
{"smiles": "CN(CC(=O)N1CC(CCl)c2ccc([N+](=O)[O-])cc21)CC(=O)N1CC(CCl)c2ccc([N+](=O)[O-])cc21", "note": "(configuration not stated)", "TGI": "> 100"}
{"smiles": "CCOC(=O)Nc1nc2ccc(OCC)cc2s1", "GI50": "> 100 µM", "TGI": "> 100"}
{"smiles": "Cc1c(-c2ccc(O)cc2)n(CCCCCCNCCOC(=O)NCCCc2ccc(N(CCCl)CCCl)cc2)c2ccc(O)cc12", "TGI": 5.02}
{"smiles": "CC1OC(OC2C(OC(=O)[C@]34CCC(C)(C)C[C@H]3C3=CC[C@@H]5[C@@]6(C)CC[C@H](OC7OC(C(=O)O)C(O)C(O)C7O)C(C)(C)[C@@H]6CC[C@@]5(C)[C@]3(C)C[C@H]4O)OCC(O)C2O)C(O)C(O)C1OC1OCC(OC2OCC(O)C(O)C2O)C(O)C1O", "note": "(some centres not stated)", "TGI": 8.06}
{"smiles": "COc1ccc(NC(=S)Nc2cc(C)cc(C)n2)cc1", "TGI": "> 100"}
{"smiles": "CCNC1C2(CCCCC2)NC(=O)C12CCCCC2", "note": "(configuration not stated)", "TGI": "> 100"}
{"smiles": "COC(=O)Nc1nc2ccc(S(=O)c3ccccc3)cc2[nH]1", "note": "(configuration not stated)", "GI50": "> 100 µM", "TGI": "> 100"}
{"smiles": "CNC(=O)c1ccccc1Nc1nc(Nc2ccc(N3CCOCC3)cc2OC)ncc1Cl", "GI50": "0.703 µM", "TGI": 4.93}
{"smiles": "C=C(CNCCO)[C@@H]1CC[C@]2(CO)CC[C@]3(C)[C@H](CC[C@@H]4[C@@]5(C)CCC(N)C(C)(C)[C@@H]5CC[C@]43C)[C@@H]12", "note": "(some centres not stated)", "GI50": "3.3 µM", "TGI": 12.6}
{"smiles": "O=C1NC(N/N=C/C(O)C(O)C(O)C(O)CO)=N/C1=C\\c1ccco1", "note": "(configuration not stated)", "TGI": "> 100"}
{"smiles": "NC(CSC(c1ccccc1)(c1ccccc1)c1ccc2c(c1)OCO2)C(=O)O", "note": "(configuration not stated)", "GI50": "0.515 µM", "TGI": "> 100"}
{"smiles": "O=C1c2ccccc2C(=O)c2sc(Nc3cccc(Cl)c3)nc21", "TGI": 4.87}
{"smiles": "O=c1ccn([C@@H]2C[C@H]2CO)c(=O)[nH]1", "TGI": "> 100"}
{"smiles": "NC1CC(=O)c2cscc21", "note": "(configuration not stated)", "TGI": "> 100"}
{"smiles": "FC(F)(F)c1ccc(C2SCc3nc4ccccc4n32)cc1", "note": "(configuration not stated)", "TGI": "> 100"}
{"smiles": "CC(OC(=O)C(Cc1ccccc1)NC(=O)C(Cc1ccccc1)NC(=O)OC(C)(C)C)C(=O)OCc1ccccc1", "note": "(stereo not drawn) (Boc-Phe-Phe-[Lac]-OBn; configuration not given here)", "TGI": "> 100"}
{"smiles": "NC(=O)c1ccc(C(=O)Nc2ccc([As](=O)(O)O)cc2)cc1", "TGI": "> 100"}
{"smiles": "Cc1cc(=O)[nH]c(NNC(C#N)c2cccc(O)c2)n1", "note": "(configuration not stated)", "TGI": "> 100"}
{"smiles": "CSc1ccccc1C#C/C=C\\C#Cc1ccccc1N1CCCC1=O", "GI50": "> 39.5 µM", "TGI": "> 50"}
{"smiles": "CC1=C(C#N)C23C(=O)c4ccccc4C(O)=C2C(=O)C=CC3(O)N1Cc1ccccc1", "note": "(configuration not stated)", "GI50": "49.2 µM", "TGI": "> 100"}
{"smiles": "C=CCc1cc(OC)c2c(c1)C(O)CC(c1ccc(OC)c(OC)c1)O2", "note": "(configuration not stated)", "TGI": "> 100"}
{"smiles": "CC1OC(OC2C(O[C@H]3CC[C@@H]4C(=CC[C@@H]5[C@@]4(C)C(=O)C[C@]4(C)[C@@H]([C@H](C)CC[C@@H](O)C(C)(C)O)CC[C@@]54C)C3(C)C)OC(CO)C(O)C2O)C(O)C(O)C1O", "note": "(some centres not stated)", "TGI": "> 100"}
{"smiles": "CN1CCc2cc3c(c4c2C1C(O)c1ccccc1-4)OCO3", "note": "(configuration not stated)", "TGI": "> 100"}
{"smiles": "C/C(=C\\CO)CC/C=C(\\C)CNc1c(F)c(F)c(F)c(F)c1F", "TGI": 63.2}
{"smiles": "CCCCS(=O)(=O)CCC(N)P(=O)(O)O", "note": "(configuration not stated)", "TGI": "> 100"}
{"smiles": "COc1ccc2nc3cc(Cl)ccc3c(Sc3ccccc3[N+](=O)[O-])c2c1", "TGI": "> 100"}
{"smiles": "O=C(OCc1ccccc1)N(CCCCN(CCCNC(=O)C(F)(F)F)C(=O)OCc1ccccc1)CCCNC(=O)C(F)(F)F", "TGI": "> 100"}
{"smiles": "Cc1ccc(Cc2n[nH]c(=O)[nH]2)cc1", "TGI": "> 100"}
{"smiles": "O=C1N(Cl)C(=O)C(c2ccc(Cl)cc2)(c2ccc(Cl)cc2)N1Cl", "TGI": "> 100"}
{"smiles": "CC(=O)OC(C)C(=O)C1c2cccc(O)c2C(=O)c2c(O)cc(C)cc21", "note": "(configuration not stated)", "TGI": 1.47}
{"smiles": "O=C(CSC(=S)N1CCCCC1)Nc1nc2c(s1)CCCC2", "TGI": "> 100"}
{"smiles": "CN(C)CCNc1ccc([N+](=O)[O-])c2sc3ccccc3c(=O)c12", "TGI": 29.6}
{"smiles": "O=C1NC(N/N=C/c2ccccc2)=N/C1=C\\c1ccco1", "TGI": "> 100"}
